# Source: the supplement of paper PMC10126150
# Values marked as one replicate rest on one cluster of the flow cell; about a third of the high ones do not repeat.
# Tested on: ATP
# Test: switch fluorescence ratio, 500 uM ATP over buffer (Cy3 cluster intensity, sum of 5 cycles each) (fold (ratio)); higher = stronger signal-on switching upon ATP binding; sequences stand for … in TCGTCGGCAGCGTCAGATGTGTATAAGAGACAGTTTTTTTTTTTTTTTTTTTTTTTTT…TC
# Settings: aptamer strand: ATP DNA aptamer (quencher-CACCTGGGGGAGTATTGCGGAGGAAGG + anchor), 100 nM annealed; ATP concentration: 500 uM; one replicate
# Summary of the method: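 After annealing to 100 nM quencher-labelled ATP aptamer, Cy3-labelled switching-strand clusters on a modified Illumina MiSeq flow-cell were imaged in selection buffer. A second image followed after 15 min with 500 uM ATP at 22 °C, and five such buffer/ATP cycles were done, each separated by NaOH stripping and re-annealing. The fluorescence ratio, averaged per switch-domain sequence, is summed target-cycle over summed buffer-cycle Cy3 intensity per cluster, with clusters outside 100-1000 RFU excluded.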
# 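Further: ATP exposure 15 min at 22 °C before imaging.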
row,Sequence,switch fluorescence ratio
1,CGGGATGGT,0.965
2,CGGGCAGGGA,1.07
3,CGGGCATACG,1.13
4,CGGGCCGAGA,1.13
5,CGGGCGACCG,1.01
6,CGGGCGCTCT,1.03
7,CGGGCGGACT,1
8,CGGGCTAGAA,0.944
9,CGGGCTGCCC,1.03
10,CGGGGACCTT,1.06
11,CGGGGCATAC,4.68
12,CGGGGCCCAT,1
13,CGGGGCGACG,0.993
14,CGGGGCGTGG,1.07
15,CGGGGCGTTC,1.04
16,CGGGGGACGA,1.01
17,CGGGGGCGG,0.992
18,CGGGGGTGC,0.989
19,CGGGGTAACA,1.05
20,CGGGGTCCAG,0.983
21,CGGGGTTAAC,0.991
22,CGGGTAAAAC,1.03
23,CGGGTATAGA,1.09
24,CGGGTCCTTT,0.94
25,CGGGTGATGT,0.963
26,CGGGTGTCCG,1.03

row,Sequence,switch fluorescence ratio
1,CGGGTTAACA,1.04
2,CGGGTTAGGT,0.986
3,CGGGTTGGTG,1.01
4,CGGTAAAAAT,1
5,CGGTAAAGAG,1.06
6,CGGTAAAGTG,1
7,CGGTACCATG,1.02
8,CGGTAGGACT,1.01
9,CGGTAGTAGC,1.02
10,CGGTAGTTTG,0.96
11,CGGTATACGA,1.1
12,CGGTATACGG,1.04
13,CGGTATCGAG,0.986
14,CGGTATTGTA,1.02
15,CGGTCAACGA,0.991
16,CGGTCATAGC,1.05
17,CGGTCATCAC,1.03
18,CGGTCGTGTG,0.958
19,CGGTCTGAGC,0.991
20,CGGTGAGTCT,0.984
21,CGGTGCACTA,1.01
22,CGGTGCAGAG,0.979
23,CGGTGCCGTT,1.01
24,CGGTGCGTGC,0.986
25,CGGTGGACCG,0.977
26,CGGTGGCCC,0.98

row,Sequence,switch fluorescence ratio
1,CGGTGGTGG,0.973
2,CGGTGTCGA,1
3,CGGTTACGGT,0.993
4,CGGTTCAAAT,0.985
5,CGGTTCTACT,1.03
6,CGGTTGT,0.981
7,CGGTTTGCTG,1.03
8,CGGTTTGTGC,1.06
9,CGGTTTTAG,0.985
10,CGTAAACGGT,0.977
11,CGTAAATTAA,1.02
12,CGTAACGTGC,1.05
13,CGTAAGGGTC,1.35
14,CGTAAGTGTG,1.02
15,CGTAATACGT,2.98
16,CGTAATGCCC,1.01
17,CGTACCTAGG,1
18,CGTACGAATT,0.996
19,CGTACGAT,1.01
20,CGTACGTGCC,1.02
21,CGTACGTTGG,1.02
22,CGTACTCGGC,1.09
23,CGTACTCTGT,0.993
24,CGTACTGGGG,1.06
25,CGTAGACATC,1.11
26,CGTAGAGAAC,1.16

row,Sequence,switch fluorescence ratio
1,CGTAGAGGT,1.01
2,CGTAGATCAG,0.977
3,CGTAGATCGC,1.07
4,CGTAGCCCTA,1.05
5,CGTAGCTGTT,1.04
6,CGTAGGAATG,1.01
7,CGTAGGATGG,1.05
8,CGTAGGCAGA,1.02
9,CGTAGGCGAA,0.97
10,CGTAGGTCCA,1.01
11,CGTAGTAGCG,1.02
12,CGTAGTATAC,5.33
13,CGTAGTATCT,0.969
14,CGTAGTATTT,1.01
15,CGTAGTTAGT,0.98
16,CGTATACGTT,0.982
17,CGTATAGGGT,0.978
18,CGTATCTGCT,1.05
19,CGTATGACCA,0.993
20,CGTATGAGGT,1
21,CGTATGAGTG,0.975
22,CGTATGCGTG,0.956
23,CGTATTAGGG,0.908
24,CGTATTCCCA,0.967
25,CGTATTGACC,1.01
26,CGTATTGACT,1.01

row,Sequence,switch fluorescence ratio
1,CGTCAAATTT,0.951
2,CGTCACCAGG,4.15
3,CGTCATGTGG,0.986
4,CGTCCCATAG,2.11
5,CGTCCCGTAA,1.58
6,CGTCCGGCCT,1.09
7,CGTCCTCTTT,0.982
8,CGTCGACTGT,1.02
9,CGTCGCCGAG,1.01
10,CGTCGCGAAG,1.04
11,CGTCGGCCCG,0.984
12,CGTCGGCCTG,0.993
13,CGTCGGCTCT,1.01
14,CGTCGGTTCA,1.04
15,CGTCGTCTAT,1.03
16,CGTCTACAGT,0.986
17,CGTCTCCTGC,1.04
18,CGTCTGACTA,1.07
19,CGTCTGTTGT,1.06
20,CGTCTTACGC,0.971
21,CGTCTTCATT,0.997
22,CGTCTTGGG,0.972
23,CGTGACACCG,0.97
24,CGTGACATCT,0.997
25,CGTGACCTTG,1.01
26,CGTGACTAGG,0.978

row,Sequence,switch fluorescence ratio
1,CGTGAGATCG,1.04
2,CGTGAGCACG,1.01
3,CGTGAGCTCT,1.01
4,CGTGAGGCT,1.05
5,CGTGAGTTTA,0.983
6,CGTGATTCCC,1.1
7,CGTGATTCTT,1.02
8,CGTGCACCC,0.991
9,CGTGCAGACT,1
10,CGTGCATTCA,0.969
11,CGTGCCCCAT,0.976
12,CGTGCGAACG,0.992
13,CGTGCTGGTC,1.08
14,CGTGCTTACC,1.07
15,CGTGGAAATG,1
16,CGTGGACCA,1.06
17,CGTGGAGAGA,1.01
18,CGTGGATATG,0.994
19,CGTGGCTCGG,1.01
20,CGTGGGCATA,1.19
21,CGTGGGGCCG,0.974
22,CGTGGGTAGC,1.03
23,CGTGGTCAGT,1.05
